Measured values published in patent US8815852B2, “Carbamoyloxy arylalkan arylpiperazine analgesics” (SK Biopharmaceuticals Co., Ltd., priority 2007, dated 2014).
At least one read-out could not be matched to a standard name with certainty.

Legend:
male ICR mouse [1] = assay: Formalin test - late phase in mouse; format: in vivo
Protocol: 3. Formalin Test—Late Phase in Mouse
A formalin test is another model for measuring an analgesic effect of drugs. […] These pain behaviors have a biphasic pattern, and therefore they are divided into an early-phase behavior within […] after the formalin administration; and a late-phase behavior up to 10 to 60 minutes. The medicinal effect observed in the formalin test-late phase means an analgesic effect of the test material in the inflammatory pain model, and also becomes a measure that may predict the medicinal effects in the neuropathic pain model (Vissers K et. al, 2003). A test material was orally administered to a male ICR mouse weighing 30 to 35 g. After 1 hour of the oral administration, 20 μl of a 2.5% formalin solution was subcutaneously injected into the planta surface of a mouse's hindlimb to induce pain. […] The analgesic effect of the test material is represented by the ‘suppression ratio of pain response’ {[(Pain response time of Vehicle-administered group−Pain response time of Test material-administered group)/(Pain response time of Vehicle-administered group)]×100%}, or ‘50% of Effective amount (ED50; an amount of a test material that is required to suppress 50% of pain behaviors) of Test material’. The ED50 (median effective dose) was determined by calculating the suppression ratio of pain response in at least three doses of test materials and subjecting to the linear regression.

male ICR mouse [2] = assay: Acetic acid-induced writhing test in mouse; format: in vivo; settings: 10 ip
Protocol: 2. Acetic Acid-Induced Writhing Test in Mouse
An acetic acid-induced writhing test is one of models for measuring an analgesic effect of drugs. A test material dissolved in a suitable vehicle was orally administered to a male ICR mouse weighing 30 to 35 g at an amount of 10 mg/kg. After 1 hour of the oral administration, […] of an aqueous 0.8% acetic acid solution was intraperitoneally injected into the male ICR mouse to induce the abdominal pain of the male ICR mouse. Right after the administration of acetic acid, the male ICR mouse was put into an empty cage, and the number of writhing behaviors of the mice was counted for 10 minutes. The term “writhing represents a reflex action in which the mouse overtly extends its abdomen by stretching its hind legs due to the abdominal pain. The analgesic effect of the test material is represented by the ‘suppression ratio of pain response’ {[(Writhing number of Vehicle-administered group−Writhing number of Test material-administered group)/(Writhing number of Vehicle-administered group)]×100%} or 50% of Effective amount (ED50 (median effective dose); an amount of test material that is required to suppress 50% of pain behaviors) of Test material. The ED50 (median effective dose) was determined by calculating the suppression ratio of pain response in at least three doses of test materials and subjecting to the linear regression.

## NC(=O)OC(CCN1CCN(c2ccccc2)CC1)c1cccc([N+](=O)[O-])c1 (stereo not shown) [Example 4, Carbamic acid 1-(3-nitro-phenyl)-3-(4-phenyl-piperazin-1-yl)-propyl ester]
Male ICR mouse [1]; at 10 po
  Formalin: Suppression ratio of Pain response: 13%

## CC(C)(C)c1ccc(C(CCN2CCN(c3ccccc3)CC2)OC(N)=O)cc1 (stereo not shown) [Example 5, Carbamic acid 1-(4-tert-butyl-phenyl)-3-(4-phenyl-piperazin-1-yl)-propyl ester]
Male ICR mouse [1]; at 10 po
  Formalin: Suppression ratio of Pain response: 51%

## NC(=O)OC(CCN1CCN(c2ccccc2)CC1)c1cccc(Cl)c1 (stereo not shown) [Example 7, Carbamic acid 1-(3-chloro-phenyl)-3-(4-phenyl-piperazin-1-yl)-propyl ester]
Male ICR mouse [1]; at 10 po
  Formalin: Suppression ratio of Pain response: 27%

## COc1ccc(C(CCN2CCN(c3ccccc3)CC2)OC(N)=O)cc1 (stereo not shown) [Example 8, Carbamic acid 1-(4-methoxy-phenyl)-3-(4-phenyl-piperazin-1-yl)-propyl ester]
Male ICR mouse [1]; at 10 po
  Formalin: Suppression ratio of Pain response: 38%

## Cc1ccc(C(CCN2CCN(c3ccccc3)CC2)OC(N)=O)cc1 (stereo not shown) [Example 10, Carbamic acid 3-(4-phenyl-piperazin-1-yl)-1-p-tolyl-propyl ester]
Male ICR mouse [2]
  AA Writhing: Suppression ratio of Pain response: 100% (10 ip)
Male ICR mouse [1]; at 10 po
  Formalin: Suppression ratio of Pain response: 64%

## NC(=O)OC(CCN1CCN(c2ncccc2Cl)CC1)c1ccccc1 (stereo not shown) [Example 28, Carbamic acid 3-[4-(3-chloro-pyridin-2-yl)-piperazin-1-yl]-1-phenyl-propyl ester]
Male ICR mouse [2]
  AA Writhing: Suppression ratio of Pain response: 48% (10 ip)

## NC(=O)OC(CCN1CCN(c2cccc(F)c2)CC1)c1ccccc1 (stereo not shown) [Example 42, Carbamic acid 3-[4-(3-fluoro-phenyl)-piperazin-1-yl]-1-phenyl-propyl ester]
Male ICR mouse [2]
  AA Writhing: Suppression ratio of Pain response: 96% (10 ip)

## NC(=O)OC(CCN1CCN(c2ccccc2[N+](=O)[O-])CC1)c1ccccc1 (stereo not shown) [Example 43, Carbamic acid 3-[4-(2-nitro-phenyl)-piperazin-1-yl]-1-phenyl-propyl ester]
Male ICR mouse [2]
  AA Writhing: Suppression ratio of Pain response: 25% (10 ip)

## COc1ccc(N2CCN(CCC(OC(N)=O)c3ccc(F)cc3)CC2)cc1 (stereo not shown) [Example 77, Carbamic acid 1-(4-fluoro-phenyl)-3-[4-(4-methoxy-phenyl)-piperazin-1-yl]-propyl ester]
Male ICR mouse [1]; at 10 po
  Formalin: Suppression ratio of Pain response: −18%

## NC(=O)OC(CCN1CCN(c2ccc([N+](=O)[O-])cc2)CC1)c1ccc(F)cc1 (stereo not shown) [Example 79, Carbamic acid 1-(4-fluoro-phenyl)-3-[4-(4-nitro-phenyl)-piperazin-1-yl]-propyl ester]
Male ICR mouse [1]; at 10 po
  Formalin: Suppression ratio of Pain response: −5%

## CC(=O)Oc1ccc(N2CCN(CCC(OC(N)=O)c3ccccc3)CC2)cc1 (stereo not shown) [Example 86, Acetic acid 4-[4-(3-carbamoyloxy-3-phenyl-propyl)-piperazin-1-yl]-phenyl ester]
Male ICR mouse [1]; at 10 po
  Formalin: Suppression ratio of Pain response: 34%

## NC(=O)OC(CCN1CCN(c2ccc(O)cc2)CC1)c1ccc(F)cc1 (stereo not shown) [Example 88, Carbamic acid 1-(4-fluoro-phenyl)-3-[4-(4-hydroxy-phenyl)-piperazin-1-yl]-propyl ester]
Male ICR mouse [1]; at 10 po
  Formalin: Suppression ratio of Pain response: 22%

## NC(=O)OC(CCN1CCN(C(c2ccc(F)cc2)c2ccc(F)cc2)CC1)c1ccccc1 (stereo not shown) [Example 93, Carbamic acid 3-{4-[bis-(4-fluoro-phenyl)-methyl]-piperazin-1-yl}-1-phenyl-propyl ester]
Male ICR mouse [2]
  AA Writhing: Suppression ratio of Pain response: 47% (10 ip)
Male ICR mouse [1]; at 10 po
  Formalin: Suppression ratio of Pain response: 30%

## NC(=O)OC(CCN1CCN(Cc2ccc3c(c2)OCO3)CC1)c1ccccc1 (stereo not shown) [Example 98, Carbamic acid 3-(4-benzo[1,3]dioxol-5-ylmethyl-piperazin-1-yl)-1-phenyl-propyl ester]
Male ICR mouse [2]
  AA Writhing: Suppression ratio of Pain response: −13% (10 ip)

## NC(=O)OC(CCN1CCN(C(=O)c2ccccc2)CC1)c1ccccc1 (stereo not shown) [Example 99, Carbamic acid 3-(4-benzoyl-piperazin-1-yl)-1-phenyl-propyl ester]
Male ICR mouse [2]
  AA Writhing: Suppression ratio of Pain response: 44% (10 ip)

## NC(=O)OC(CCN1CCN(Cc2ccccc2)CC1)c1ccccc1 (stereo not shown) [Example 100, Carbamic acid 3-(4-benzyl-piperazin-1-yl)-1-phenyl-propyl ester]
Male ICR mouse [2]
  AA Writhing: Suppression ratio of Pain response: 32% (10 ip)

## NC(=O)O[C@H](CCN1CCN(c2ccc(O)cc2)CC1)c1ccccc1 [Example 105, (R)-carbamic acid 3-[4-(4-hydroxy-phenyl)-piperazin-1-yl]-1-phenyl-propyl ester]
Male ICR mouse [1]; @ 10 ip
  Formalin: Suppression ratio of Pain response: 20.9% @ 10 ip
